The IC50 comes from the fitted curve, where viability falls to half of the control; a limit (>, <) means that the fit lies beyond the doses tested. AUC sums up the same curve from the lowest dose to the 256-fold higher top dose; it is 1 without any effect and falls as sensitivity rises. For part of these data: A top dose marked as inferred is not printed in the source and was worked back from the curve model. For part of these data: Where an entry number is given, a second screen of the drug exists; the two often differ.
Legend:
Assay in all cases: Viability of human cancer cell lines after 72 h of drug (GDSC screen)
OSI-930 = compound: O=C(Nc1ccc(OC(F)(F)F)cc1)c1sccc1NCc1ccnc2ccccc12 [OSI-930]; settings: top dose 10.24 µM
Experimental: (§1)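 Human cancer cell lines in 384-well plates, medium with 10% serum, drug for 72 h over a 256-fold dose range (nine 2-fold or five 4-fold steps up to the top dose). Adherent lines were fixed and stained with the nucleic acid dye Syto60, suspension lines read with resazurin; signal relative to control wells, capped at 0 and 100%. One two-parameter sigmoid per drug and line, fitted in a mixed model over all curves with the slope shared within a line.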

NSC-87877 = compound: O=S(=O)(O)c1ccc2cc(N=Nc3cc(S(=O)(=O)O)c4cccnc4c3O)ccc2c1 [NSC-87877]; settings: top dose 16 µM; top dose inferred
Experimental: as §1

HG-5-88-01 = compound: COc1cc(N2CCC(C(N)=O)CC2)ccc1Nc1nc(N)c(Cl)c(Nc2ccccc2S(=O)(=O)C(C)C)n1 [HG-5-88-01]; settings: top dose 10 µM; top dose inferred
Experimental: as §1

Bleomycin = compound: Cc1c(N)nc([C@H](CC(N)=O)NC[C@H](N)C(N)=O)nc1C(=O)N[C@H](C(=O)N[C@H](C)[C@@H](O)[C@H](C)C(=O)N[C@H](C(=O)NCCc1nc(-c2nc(C(=O)NCCC[S+](C)C)cs2)cs1)[C@@H](C)O)[C@@H](OC1OC(CO)C(O)C(O)C1OC1OC(CO)C(O)C(OC(N)=O)C1O)c1cnc[nH]1 [Bleomycin]
Experimental: as §1

Tamoxifen = compound: CC/C(=C(\c1ccccc1)c1ccc(OCCN(C)C)cc1)c1ccccc1 [Tamoxifen]; settings: top dose 5 µM
Experimental: as §1

VNLG/124 = compound: CCCC(=O)OCc1ccc(OC(=O)/C=C(C)/C=C/C=C(C)/C=C/C2=C(C)CCCC2(C)C)cc1 [VNLG/124]; settings: top dose 5.12 µM; top dose inferred
Experimental: as §1

Masitinib = compound: Cc1ccc(NC(=O)c2ccc(CN3CCN(C)CC3)cc2)cc1Nc1nc(-c2cccnc2)cs1 [Masitinib]; settings: top dose 20 µM
Experimental: as §1

LAQ824 = compound: O=C(/C=C/c1ccc(CN(CCO)CCc2c[nH]c3ccccc23)cc1)NO [LAQ824]; settings: top dose 1.024 µM; top dose inferred
Experimental: as §1

BX-912 = compound: O=C(Nc1cccc(Nc2ncc(Br)c(NCCc3cnc[nH]3)n2)c1)N1CCCC1 [BX-912]; settings: top dose 10.24 µM; top dose inferred
Experimental: as §1

[1] = top dose 50 µM, screen: GDSC drug entry 1378, top dose inferred
[2] = top dose 64 µM, screen: GDSC drug entry 190

Cell Line | AUC (OSI-930) | IC50 (OSI-930) [µM] | AUC (NSC-87877) | IC50 (NSC-87877) [µM] | AUC (HG-5-88-01) | IC50 (HG-5-88-01) [µM] | AUC (Bleomycin; [1]) | IC50 (Bleomycin; [1]) [µM] | AUC (Bleomycin; [2]) | IC50 (Bleomycin; [2]) [µM] | AUC (Tamoxifen) | IC50 (Tamoxifen) [µM] | AUC (VNLG/124) | IC50 (VNLG/124) [µM] | AUC (Masitinib) | IC50 (Masitinib) [µM] | AUC (LAQ824) | IC50 (LAQ824) [µM] | AUC (BX-912) | IC50 (BX-912) [µM]
NCI-H1915 (large cell lung carcinoma, adherent) | 0.964 | > 10.2 | 0.987 | > 16 | 0.986 | > 10 | 0.52 | 3.55 | 0.736 | 19.1 | 0.986 | > 5 | 0.981 | > 5.12 | 0.908 | > 20 | 0.431 | 0.0413 | 0.911 | > 10.2
ES3 (Ewing sarcoma, adherent) | 0.944 | > 10.2 | 0.944 | > 16 | 0.754 | 3.52 | 0.412 | 1.77 | 0.334 | 1.35 | 0.975 | > 5 | 0.985 | > 5.12 | 0.873 | > 20 | 0.545 | 0.0856 | 0.641 | 1.6
H2803 (mesothelioma, adherent) | 0.97 | > 10.2 | 0.983 | > 16 | 0.949 | > 10 | 0.69 | 11.7 | 0.368 | 1.63 | 0.983 | > 5 | 0.982 | > 5.12 | 0.952 | > 20 | 0.61 | 0.135 | 0.955 | > 10.2
SK-CO-1 (large intestine, adherent) | 0.989 | > 10.2 | 0.989 | > 16 | 0.774 | 3.68 | 0.2 | 0.431 | 0.033 | < 0.25 | 0.988 | > 5 | 0.989 | > 5.12 | 0.973 | > 20 | 0.582 | 0.106 | 0.955 | > 10.2
LNCaP-Clone-FGC (prostate, adherent) | 0.932 | > 10.2 | 0.981 | > 16 | 0.981 | > 10 | 0.713 | 13.8 | 0.7 | 16 | 0.97 | > 5 | 0.977 | > 5.12 | 0.809 | 12.3 | 0.469 | 0.0521 | 0.983 | > 10.2
TE-10 (oesophagus, adherent) | 0.959 | > 10.2 | 0.987 | > 16 | 0.934 | > 10 | 0.51 | 3.32 | 0.373 | 1.8 | 0.96 | > 5 | 0.984 | > 5.12 | 0.93 | > 20 | 0.429 | 0.0411 | 0.929 | > 10.2
SCC-15 (head and neck, adherent) | 0.959 | > 10.2 | 0.951 | > 16 | 0.848 | > 10 | 0.484 | 2.79 | 0.754 | 28.6 | 0.922 | > 5 | 0.975 | > 5.12 | 0.922 | > 20 | 0.592 | 0.125 | 0.886 | > 10.2
Hs-445 (Hodgkin lymphoma, suspension) | 0.951 | > 10.2 | 0.974 | > 16 | 0.985 | > 10 | 0.565 | 4.63 | 0.237 | 0.745 | 0.988 | > 5 | 0.989 | > 5.12 | 0.883 | 18.5 | 0.386 | 0.032 | 0.758 | 3.31
NCI-H196 (small cell lung carcinoma, adherent) | 0.987 | > 10.2 | 0.988 | > 16 | 0.966 | > 10 | 0.942 | > 50 | 0.93 | > 64 | 0.978 | > 5 | 0.988 | > 5.12 | 0.912 | > 20 | 0.538 | 0.0815 | 0.665 | 1.88
SU-DHL-8 (B-cell lymphoma, suspension) | 0.681 | 1.98 | 0.987 | > 16 | 0.969 | > 10 | 0.969 | > 50 | 0.375 | 1.85 | 0.981 | > 5 | 0.801 | 2.3 | 0.862 | 15.3 | 0.269 | 0.0149 | 0.669 | 1.82
MDA-MB-330 (breast, adherent) | 0.966 | > 10.2 | 0.98 | > 16 | 0.911 | > 10 | 0.969 | > 50 | 0.631 | 9.7 | 0.977 | > 5 | 0.956 | > 5.12 | 0.946 | > 20 | 0.412 | 0.0354 | 0.982 | > 10.2
H2804 (mesothelioma, adherent) | 0.932 | > 10.2 | 0.973 | > 16 | 0.914 | > 10 | – | – | 0.781 | 29.2 | 0.984 | > 5 | 0.984 | > 5.12 | 0.85 | 17.4 | 0.504 | 0.0658 | 0.868 | > 10.2
NCI-H1355 (lung adenocarcinoma, adherent) | 0.956 | > 10.2 | 0.97 | > 16 | 0.7 | 2.97 | 0.856 | > 50 | 0.549 | 5.76 | 0.952 | > 5 | 0.974 | > 5.12 | 0.969 | > 20 | 0.443 | 0.0417 | 0.955 | > 10.2
